The campaign covered roughly 45,000 compounds. About 65 (0.1%) were called active. Calls come from the whole dose curve; as a rule, active = well fitted activation curve with a large enough effect; inconclusive = small, poorly fitted or top-dose-only effect; inactive = no such curve, though single readings can be large or run the other way. The list shows a part of the results.
target: Galactocerebrosidase (Homo sapiens) (UniProt P54803); experiment: A Novel Cell-Based Assay to Identify Small Molecules for B -Galactocerebrosidase; conditions: 145M-Twi-hGALC-G270D cells, HMU-beta-Gal fluorescence, 48 h; series mostly up to 57.5 µM; activation: at the top concentration; note: 0% is about no effect; nearly all actives have a fitted effect of over 65% in size
Chain of UniProt P54803 (P54803 whole entry, looked up): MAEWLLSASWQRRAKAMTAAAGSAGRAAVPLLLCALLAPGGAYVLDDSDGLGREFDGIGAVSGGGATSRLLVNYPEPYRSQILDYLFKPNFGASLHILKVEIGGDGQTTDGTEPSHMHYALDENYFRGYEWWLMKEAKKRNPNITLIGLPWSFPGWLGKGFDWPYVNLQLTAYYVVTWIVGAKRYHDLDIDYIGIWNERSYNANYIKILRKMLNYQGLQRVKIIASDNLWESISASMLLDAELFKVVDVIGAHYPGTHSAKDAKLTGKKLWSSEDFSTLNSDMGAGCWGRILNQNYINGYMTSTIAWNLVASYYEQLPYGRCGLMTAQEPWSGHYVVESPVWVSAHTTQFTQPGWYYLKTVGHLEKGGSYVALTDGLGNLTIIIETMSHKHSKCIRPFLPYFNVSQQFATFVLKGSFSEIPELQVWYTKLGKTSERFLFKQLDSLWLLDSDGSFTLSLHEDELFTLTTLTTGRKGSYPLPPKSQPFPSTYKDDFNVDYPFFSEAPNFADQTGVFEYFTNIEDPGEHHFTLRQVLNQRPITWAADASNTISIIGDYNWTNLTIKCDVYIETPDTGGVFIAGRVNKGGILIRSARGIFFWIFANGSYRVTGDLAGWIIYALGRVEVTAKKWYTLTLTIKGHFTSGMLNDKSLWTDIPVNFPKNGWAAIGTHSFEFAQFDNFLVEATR
Method in brief: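 qHTS, 1536-well; 145M-Twi-hGALC-G270D cells (WT line also made) in DMEM/F12 + 10% FBS; compound incubation on live cells; HMU-β-gal 0.1 mM final, pH 5.2, NaTC; carbonate stop; fluorescence increase = enhanced residual activity.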

activation, inactive:
COc1ccc(C2=NN(CC(=O)NCCCN(C)c3ccccc3)C(=O)CC2)cc1 25%
COc1ccc(N2CCN(C3=NS(=O)(=O)C(c4cccc(Br)c4)=C3C)CC2)cc1 4.23%
Cc1cc(C)c(NC(=O)CCc2c(C)nc3c(c(C)nn3C(C)(C)C)c2C)c(C)c1 5.26%
CCOC(=O)c1ccc(NC(=O)CCc2c(C)nc3nc[nH]n3c2=O)cc1 -21.3%
CCCSCCCNC(=O)c1ccc2c(c1)sc1nc(-c3ccc(OCC)cc3)cn12 -5.47%
Cc1ccc2cc(CN(C(=O)c3cccc(Cl)c3)c3ccccc3)c(=O)[nH]c2c1 -20.1%
COc1ccccc1NC(=O)c1oc2ccccc2c1NC(=O)C1CCCCC1 -7.52%
CC1C(=O)N2CCCc3cc(S(=O)(=O)N4CCC(C(N)=O)CC4)cc1c32 (stereo not drawn) -20.7%
Cc1ccccc1CSc1nc2ccsc2c(=O)n1CCC(C)C -8.63%
CN1c2ccc(Cl)cc2-c2nc(SCC(=O)NCc3ccccc3)ncc2S1(=O)=O -5.69%
O=C(NCc1ccccc1F)C1CCN(c2nn3cc(-c4ccc(F)cc4)nc3s2)CC1 -4.78%
COc1ccccc1Nc1nn2c(=O)c3ccc(C(=O)NCCC4=CCCCC4)cc3nc2s1 -25.4%
COc1cccc(CNC(=O)c2cnc(N3CCCCC3)c3ccccc23)c1 -11.7%
O=C(Nc1ccccc1C(F)(F)F)N1CCC(CN2CCc3ccccc3C2)CC1 -7.89%
Cc1cc(C)cc(-n2c(SCC(N)=O)nc3c([nH]c4ccccc43)c2=O)c1 -13.4%
O=C(NC1CC(=O)N(c2cccc(F)c2)C1)c1cc2ccccc2o1 (stereo not drawn) -8.5%
COc1ccc(C)cc1NC(=O)C(Cc1ccccc1)NS(=O)(=O)c1cccs1 (stereo not drawn) -26.7%
Cc1ccc(Cn2c(C(=O)O)c(CNC3CCCC3)c3ccc(C)cc32)cc1 5.69%
Cc1ccc(OCc2ccc(-c3nc(C#N)c(NCc4ccccc4Cl)o3)o2)cc1 -16.3%
COc1ccc(Nc2ncnc3c2cnn3-c2ccc(C)cc2)cc1Cl -17%
CCC(=O)N1CCc2cc(Br)cc(S(=O)(=O)CCC(=O)NCc3cccc(OC)c3)c21 -34.9%
Cc1ccc2nc(-c3cccc(NC(=O)c4cccc5ccccc45)c3)oc2c1 -23.5%
COCCNc1oc(/C=C/c2ccc(F)cc2)nc1C#N -13.3%
CCOC(=O)c1ccc(CN(Cc2ccccc2C)S(=O)(=O)c2ccc(F)c(C)c2)cc1 -15.3%
Cc1ccc(CNC(=O)CCCn2c(=O)[nH]c3ccc(Br)cc3c2=O)cc1 -13.8%
Cc1cccc(Cn2cc(S(=O)(=O)c3cccc(C)c3)c(=O)c3cc(F)c(N4CCOCC4)cc32)c1 -4.68%
COc1ccc2nc(C)cc(Nc3ccc(Cl)c(Cl)c3)c2c1 -1.47%
CCOc1ccc(-n2c(SCC(=O)NC3CCCCC3)nc3c([nH]c4ccccc43)c2=O)cc1 -21.2%
Cc1ccc(-n2c(=O)c3c(cnn3C)n(CC(=O)Nc3ccccc3C)c2=O)cc1 -13.3%
O=C(Oc1ccc(Cl)cc1)c1cc(-c2ccc3c(c2)OCCO3)on1 -7.96%
O=C(Cn1c(=O)oc2cc(S(=O)(=O)N3CCCCC3)ccc21)NCc1ccc(Cl)cc1 -41%
CCCCn1c(=NC(=O)c2cc3ccccc3o2)c(C(=O)OCC)cc2c(=O)n3ccccc3nc21 -12.4%
CCn1c(=O)c2cc(C(=O)NCCCN3CCC(C)CC3)sc2c2ccccc21 -16.3%
COC(=O)c1ccccc1NC(=O)c1ccc2nc(CCc3ccccc3)oc2c1 3.59%
CCN(CC)CCNC(=O)Cn1nc(C)c2c(C)n(-c3ccccc3)nc2c1=O -17.1%
Cc1cccc(N2CCN(S(=O)(=O)c3ccc4c(c3)CC(=O)N4C)CC2)c1C -6.46%
COc1ccc(Cn2ccnc2SCC(=O)NCc2ccco2)cc1 -19.3%
COc1ccc(-c2onc(C)c2C)cc1S(=O)(=O)NCC1CCN(Cc2cc(C)ccc2C)CC1 -3.02%
Cc1ccc(Cl)cc1NC(=O)CSc1nc2ccccc2nc1Cc1ccccc1 -1.67%
COc1cccc(-c2noc(COc3ccccc3Cl)n2)c1 -17%
COc1ccc(CC2C(=O)Nc3ccc(Br)cc32)cc1OC (stereo not drawn) -15.9%
O=C(Nc1ccc(F)c(Cl)c1)C1CCCN(c2cnccn2)C1 (stereo not drawn) -8.41%
COc1ccc(NC(=O)CCc2c(C)nc3nc(CNC(=O)OC(C)(C)C)nn3c2C)cc1OC 3.82%
COc1ccc(S(=O)(=O)NCC(c2ccco2)N2CCN(c3ccc(F)cc3)CC2)cc1C (stereo not drawn) -14.6%
COc1cccc2cc(C(=O)NCCc3c(C)[nH]c4ccc(F)cc34)c(=O)oc12 -18.2%
CC1CCN(S(=O)(=O)c2ccc3c(ccn3CCC(=O)NCc3ccc(N(C)C)cc3)c2)CC1 -9.39%
CC(=O)N1CCCC1c1nc2ccccc2n1Cc1ccccc1C (stereo not drawn) -24.8%
CCc1ccccc1NC(=O)N1CCN(C(=O)c2nsc3ccccc23)CC1 4.92%
O=C(NCCc1ccccc1)C(=O)NCC(c1ccc2c(c1)OCO2)N1CCOCC1 (stereo not drawn) -3.66%
COc1cc(NC(=O)CC(C)n2nc(C)cc2C)cc(OC)c1 (stereo not drawn) -13.5%
CCS(=O)(=O)N1CCc2cc(C(=O)NCCc3ccc(OC)cc3)ccc21 -2.17%
CC1CCN(S(=O)(=O)c2nnc(NC(=O)c3cccc(Br)c3)s2)CC1 -20.7%
CCNc1nc(NC(C)(C)C)nc(Oc2ccc(=O)n(C)n2)n1 -2.08%
COc1ccc(Cl)cc1NC(=O)CSc1cn(CC(=O)N2CCCCCC2)c2ccccc12 -50.6%
CCOc1ccccc1C(=O)N(Cc1ccccc1F)C1CCS(=O)(=O)C1 (stereo not drawn) -15.6%
Cc1ccc(-c2nnc3ccccc3c2C(=O)Nc2ccccc2F)cc1 -6.01%
Cc1ccc(NC(=O)Cn2c(=O)n(CCC(=O)NCc3ccccc3Cl)c(=O)c3ccccc32)cc1 7.28%
COc1cc(NC(=O)C(CCSC)NS(=O)(=O)c2ccc3c(c2)oc(=O)n3C)cc(OC)c1 (stereo not drawn) -6.53%
COc1ccc(NC(=O)c2c(NCc3cccc(OC)c3)sc3c2CCCC3)cc1 -17.3%
CC(C)(C)c1ccc(C(=O)N2CCC(c3nc4ccccc4o3)CC2)cc1 -3.66%
O=C(CCC1N=C2c3ccccc3N=C(SCc3ccccc3F)N2C1=O)NCc1ccc(F)cc1 (stereo not drawn) -17.4%
Cc1ccc2occ(CC(=O)N(Cc3ccc(C(C)C)cc3)C3CCS(=O)(=O)C3)c2c1 (stereo not drawn) -15.1%
CCN1CCc2nc3sc(C(=O)c4ccc(F)cc4)c(N)c3cc2C1 -3.99%

— PubChem BioAssay AID1159614 (National Center for Advancing Translational Sciences (NCATS), 2016)
